Literature values in article PMC11006913.
Residue numbers refer to the chain shown, from its start. This is one part of the list.

Columns and labels:
Settings in all cases: PBM; conditions not shown; double strand, one strand shown; scale: upbm affinity estimate (log intensity, higher = more binding, comparable within an allelic series)
PBX4 (Homo sapiens) = target: T1, PBX4 (Homo sapiens) (UniProt Q9BYU1)
T1 sequence: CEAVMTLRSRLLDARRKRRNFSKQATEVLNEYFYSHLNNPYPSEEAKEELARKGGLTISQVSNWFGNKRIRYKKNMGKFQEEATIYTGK

[1] = target: T2, PBX4 R215Q (Homo sapiens) (UniProt Q9BYU1)
T2 sequence: T1 sequence with R19Q

[2] = target: PITX2 L100Q (Homo sapiens) (UniProt Q99697)
[3] = target: PITX2 R108H (Homo sapiens) (UniProt Q99697)
[4] = target: PITX2 R130W (Homo sapiens) (UniProt Q99697)
[5] = target: PROP1 R112Q (Homo sapiens) (UniProt O75360)
UniProt O75360, sequence (O75360 56-141 R112Q): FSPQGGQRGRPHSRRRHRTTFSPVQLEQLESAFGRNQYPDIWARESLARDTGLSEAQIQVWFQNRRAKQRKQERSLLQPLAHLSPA

[6] = target: PITX2 T114P (Homo sapiens) (UniProt Q99697)

CCAAGGGA [8-mer CCAAGGGA]
binding signal (PBX4 (Homo sapiens)): 9.81
binding signal [1]: 9.9

AGGTCGTC [8-mer AGGTCGTC]
binding signal (PBX4 (Homo sapiens)): 9.93
binding signal [1]: 9.8

GCATGTCA [8-mer GCATGTCA]
binding signal (PBX4 (Homo sapiens)): 11
binding signal [1]: 10.3

CCGCGGGA [8-mer CCGCGGGA]
binding signal (PBX4 (Homo sapiens)): 9.79
binding signal [1]: 9.74

AACGGACG [8-mer AACGGACG]
binding signal (PBX4 (Homo sapiens)): 9.85
binding signal [1]: 9.84

CACAAGGA [8-mer CACAAGGA]
binding signal (PBX4 (Homo sapiens)): 9.99
binding signal [1]: 9.91

AAGTGTCC [8-mer AAGTGTCC]
binding signal (PBX4 (Homo sapiens)): 9.99
binding signal [1]: 9.93

AGGCCTAC [8-mer AGGCCTAC]
binding signal (PBX4 (Homo sapiens)): 9.97
binding signal [1]: 9.8

CGTCATCA [8-mer CGTCATCA]
binding signal (PBX4 (Homo sapiens)): 10.7
binding signal [1]: 10.1

TAGCCCGA [8-mer TAGCCCGA]
binding signal (PBX4 (Homo sapiens)): 9.86
binding signal [1]: 9.81

GTTGCCAA [8-mer GTTGCCAA]
binding signal (PBX4 (Homo sapiens)): 10
binding signal [1]: 9.87

ACATGTTA [8-mer ACATGTTA]
binding signal (PBX4 (Homo sapiens)): 10.7
binding signal [1]: 10.1

GAGGGACA [8-mer GAGGGACA]
binding signal (PBX4 (Homo sapiens)): 9.88
binding signal [1]: 9.89

ATCCGTCA [8-mer ATCCGTCA]
binding signal (PBX4 (Homo sapiens)): 10.6
binding signal [1]: 10.1

GCACCAAC [8-mer GCACCAAC]
binding signal (PBX4 (Homo sapiens)): 9.89
binding signal [1]: 9.85

CATGTCAC [8-mer CATGTCAC]
binding signal (PBX4 (Homo sapiens)): 10.9
binding signal [1]: 10.3

AAATGACG [8-mer AAATGACG]
binding signal (PBX4 (Homo sapiens)): 10.6
binding signal [1]: 10.1

CTTGTCAA [8-mer CTTGTCAA]
binding signal (PBX4 (Homo sapiens)): 10.7
binding signal [1]: 10.1

AGACAAGG [8-mer AGACAAGG]
binding signal (PBX4 (Homo sapiens)): 9.97
binding signal [1]: 9.84

GCAGCACC [8-mer GCAGCACC]
binding signal (PBX4 (Homo sapiens)): 9.78
binding signal [1]: 9.88

CAGCAGGC [8-mer CAGCAGGC]
binding signal (PBX4 (Homo sapiens)): 9.8
binding signal [1]: 9.76

AACCATGG [8-mer AACCATGG]
binding signal (PBX4 (Homo sapiens)): 9.95
binding signal [1]: 9.91

CCGTCAAA [8-mer CCGTCAAA]
binding signal (PBX4 (Homo sapiens)): 10.8
binding signal [1]: 10.1

ACACGGGA [8-mer ACACGGGA]
binding signal (PBX4 (Homo sapiens)): 10
binding signal [1]: 9.97

ACGGATCC [8-mer ACGGATCC]
binding signal (PBX4 (Homo sapiens)): 10
binding signal [1]: 9.84

ATGTCAAA [8-mer ATGTCAAA]
binding signal (PBX4 (Homo sapiens)): 10.8
binding signal [1]: 10.1

CGTTGCGC [8-mer CGTTGCGC]
binding signal (PBX4 (Homo sapiens)): 9.83
binding signal [1]: 9.7

GCACGCAA [8-mer GCACGCAA]
binding signal (PBX4 (Homo sapiens)): 9.74
binding signal [1]: 9.74

CATCAATA [8-mer CATCAATA]
binding signal (PBX4 (Homo sapiens)): 10.8
binding signal [1]: 10.2

GGCTCGGA [8-mer GGCTCGGA]
binding signal (PBX4 (Homo sapiens)): 9.72
binding signal [1]: 9.72

GACGCGAC [8-mer GACGCGAC]
binding signal (PBX4 (Homo sapiens)): 9.82
binding signal [1]: 9.8

ATGATTGA [8-mer ATGATTGA]
binding signal (PBX4 (Homo sapiens)): 10.8
binding signal [1]: 10.3

AACCCCAT [8-mer AACCCCAT]
binding signal (PBX4 (Homo sapiens)): 9.96
binding signal [1]: 9.92

AATGGAGG [8-mer AATGGAGG]
binding signal (PBX4 (Homo sapiens)): 10
binding signal [1]: 9.93

ATGACGAG [8-mer ATGACGAG]
binding signal (PBX4 (Homo sapiens)): 10.9
binding signal [1]: 10.2

CACAGTCG [8-mer CACAGTCG]
binding signal (PBX4 (Homo sapiens)): 9.9
binding signal [1]: 9.87

GTGATTGA [8-mer GTGATTGA]
binding signal (PBX4 (Homo sapiens)): 10.7
binding signal [1]: 10.2

CCGCACGG [8-mer CCGCACGG]
binding signal (PBX4 (Homo sapiens)): 9.8
binding signal [1]: 9.77

ACGACCCA [8-mer ACGACCCA]
binding signal (PBX4 (Homo sapiens)): 9.97
binding signal [1]: 9.9

CCGCGATA [8-mer CCGCGATA]
binding signal (PBX4 (Homo sapiens)): 9.94
binding signal [1]: 9.89

ACATCAAA [8-mer ACATCAAA]
binding signal (PBX4 (Homo sapiens)): 10.8
binding signal [1]: 10.2

AAAGGGCT [8-mer AAAGGGCT]
binding signal (PBX4 (Homo sapiens)): 9.86
binding signal [1]: 9.82

ACCCAGCC [8-mer ACCCAGCC]
binding signal (PBX4 (Homo sapiens)): 9.6
binding signal [1]: 9.65

GTCATCAA [8-mer GTCATCAA]
binding signal (PBX4 (Homo sapiens)): 10.8
binding signal [1]: 10.2

CATCAATG [8-mer CATCAATG]
binding signal (PBX4 (Homo sapiens)): 10.6
binding signal [1]: 10.1

CTGCGAAG [8-mer CTGCGAAG]
binding signal (PBX4 (Homo sapiens)): 9.79
binding signal [1]: 9.74

CTCATCAA [8-mer CTCATCAA]
binding signal (PBX4 (Homo sapiens)): 10.8
binding signal [1]: 10.2

GTCAATCA [8-mer GTCAATCA]
binding signal (PBX4 (Homo sapiens)): 10.9
binding signal [1]: 10.3

GATTACGC [8-mer GATTACGC]
binding signal [2]: 10.2
binding signal [3]: 8.9
binding signal [4]: 8.57

CGTGTCGC [8-mer CGTGTCGC]
binding signal (PBX4 (Homo sapiens)): 9.94
binding signal [1]: 9.8

AGTAGTCC [8-mer AGTAGTCC]
binding signal (PBX4 (Homo sapiens)): 10
binding signal [1]: 9.9

ACATCAAT [8-mer ACATCAAT]
binding signal (PBX4 (Homo sapiens)): 10.9
binding signal [1]: 10.2
binding signal [5]: 12

AGTTGACG [8-mer AGTTGACG]
binding signal (PBX4 (Homo sapiens)): 10.6
binding signal [1]: 10.1

GAGGCCCC [8-mer GAGGCCCC]
binding signal (PBX4 (Homo sapiens)): 9.68
binding signal [1]: 9.71
binding signal [2]: 8.23
binding signal [3]: 7.97
binding signal [4]: 7.87
binding signal [6]: 8.04

CTGGATAA [8-mer CTGGATAA]
binding signal [2]: 9.96
binding signal [3]: 8.71
binding signal [4]: 8.55

AACTGGTC [8-mer AACTGGTC]
binding signal (PBX4 (Homo sapiens)): 9.98
binding signal [1]: 9.87

CTGAATTA [8-mer CTGAATTA]
binding signal [2]: 10.1
binding signal [3]: 8.98
binding signal [4]: 8.71

ACGTCAAT [8-mer ACGTCAAT]
binding signal (PBX4 (Homo sapiens)): 10.8
binding signal [1]: 10.2
